# B1: P1409 (Fc fusion)
# chain: ETRECIYYNANWEQERTNQSGLERCEGEQDKRWHCYASWRNSSGTIELVKKGCWLDDFNCYDRQECVATEENPQVYFCCCEGNFCNERFTHLPEAGGPEVTYEPPPTGGGGSGGGGSGGGGSGG[human IgG1 Fc and a few adjoining residues not spelt out]
# B2: P1371: hActRIIB L33W, 14 aa linker, IgG1 Y-DL Fc; SEQ ID 230 (protein)
# chain: ETRECIYYNANWELERTNQSGLERCEGEQDKRWHCYASWRNSSGTIELVKKGCWLDDFNCYDRQECVATEENPQVYFCCCEGNFCNERFTHLPEAGGPEVTYEPPPTGGGGSGGGGSGGGG[human IgG1 Fc with changes not spelt out]
# B3: P1374: hActRIIB L33W, 19 aa linker, IgG1 Y-DL Fc; SEQ ID 233 (protein)
# chain: ETRECIYYNANWELERTNQSGLERCEGEQDKRWHCYASWRNSSGTIELVKKGCWLDDFNCYDRQECVATEENPQVYFCCCEGNFCNERFTHLPEAGGPEVTYEPPPTGGGGSGGGGSGGGGSGGGG[human IgG1 Fc with changes not spelt out]
# B4: P751: hActRIIB L33Y, 14 aa linker, IgG1-DL Fc; SEQ ID 176 (protein)
# chain: ETRECIYYNANWELERTNQSGLERCEGEQDKRYHCYASWRNSSGTIELVKKGCWLDDFNCYDRQECVATEENPQVYFCCCEGNFCNERFTHLPEAGGPEVTYEPPPTGGGGSGGGGSGG[human IgG1 Fc and a few adjoining residues not spelt out]
# B5: P1182: hActRIIB L33Y G27D, 14 aa linker, IgG1-DL Fc; SEQ ID 194 (protein)
# chain: ETRECIYYNANWELERTNQSGLERCEDEQDKRYHCYASWRNSSGTIELVKKGCWLDDFNCYDRQECVATEENPQVYFCCCEGNFCNERFTHLPEAGGPEVTYEPPPTGGGGSGGGGSGG[human IgG1 Fc and a few adjoining residues not spelt out]
# Legend:
# [1] = biological target: T1, BMP-10 (UniProt O95393 317-424); experiment: cell-based or functional assay
# T1 sequence (looked up): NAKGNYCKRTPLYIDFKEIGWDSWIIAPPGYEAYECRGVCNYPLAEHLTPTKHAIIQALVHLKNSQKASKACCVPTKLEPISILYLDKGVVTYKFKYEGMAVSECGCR
# [2] = biological target: T2, BMP-9 (UniProt Q9UK05 320-429); experiment: cell-based or functional assay
# T2 sequence (looked up): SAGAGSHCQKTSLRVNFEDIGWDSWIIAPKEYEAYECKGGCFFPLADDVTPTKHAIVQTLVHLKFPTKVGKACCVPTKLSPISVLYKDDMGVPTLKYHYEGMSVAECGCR
# [3] = biological target: T3, activin B (UniProt P09529 293-407); experiment: cell-based or functional assay
# T3 sequence (looked up): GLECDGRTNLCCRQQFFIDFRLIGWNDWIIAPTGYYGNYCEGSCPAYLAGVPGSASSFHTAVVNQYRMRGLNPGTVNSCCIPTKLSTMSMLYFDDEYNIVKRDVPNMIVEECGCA
# [4] = biological target: GDF-8 (UniProt O14793 267-375); experiment: cell-based or functional assay
# [5] = biological target: GDF-11 (UniProt O95390 299-407); experiment: cell-based or functional assay
# [6] = biological target: T4, recombinant human activin A (human, UniProt P08476 311-426); experiment: cell-based or functional assay
# T4 sequence (looked up): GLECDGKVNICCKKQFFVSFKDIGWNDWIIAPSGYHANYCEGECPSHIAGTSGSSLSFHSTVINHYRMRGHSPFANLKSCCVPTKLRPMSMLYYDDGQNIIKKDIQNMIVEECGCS
# [7] = SEC-HPLC monomer and HMW content of purified fusion proteins; assay type: physicochemical; conditions: after Protein A purification
# Description: Given that protein aggregation can be indicative of reduced conformational stability and decreased activity, Size-Exclusion Chromatography-High Performance Liquid Chromatography (SEC-HPLC) was used to determine the purity of each ActRIIB-ECD construct. This method measured the percentage of intact monomeric species as well as the presence of aggregates and/or degradation products.
# All proteins expressed efficiently in CHO and/or 293 cells and purification efficiency of each using Protein A affinity chromatography was similar.
# [8] = tested on: TGFβ superfamily ligands; experiment: Neutralization profile across TGFβ superfamily ligands (HEK293 and HepG2 reporter assays, summary); assay type: cell-based, human; conditions: all ligands
# Method: Potency testing by neutralization on cell-based assays. Characterization of the activin A, activin B, GDF-8, and GDF-11 inhibition potency (IC50) of the fusion proteins was performed using a cell-based reporter assay. TGFβ-reporter HEK293 cells were obtained from InvivoGen (San Diego, CA, cat. no. hkb-tgfb) and were maintained following the manufacturer's instructions. Briefly, cells were grown in high-glucose DMEM, containing 10% heat-inactivated FBS, 30 μg/mL blasticidin, 250 μg/mL hygromycin B, and 100 μg/mL zeocin (hereafter, “growth medium”). Once the cells reached 70-80% confluence, they were detached in growth medium by gently tapping on the flask. For all assays, cells were seeded in 96-well plates at a density of 20,000 cells per well in growth medium. Cells were left to attach for 10 minutes at room temperature (RT) prior to being transferred to a 37° C. incubator (5% CO2) overnight. The next day, treatments were prepared by combining the appropriate concentration of agent with activin A, activin B, GDF-8, or GDF-11 for 30 min at RT (shaking at 150 rpm). Treatments were conducted in high-glucose DMEM (serum-free and with no selection agents), and the final concentration of cytokine (ligand) was 0.3 nM. Growth medium was removed from the culture plates, and cells were treated with the appropriate mixes of fusion protein and cytokine. Treatment duration was for 18-22 h at 37° C. (5% CO2). All treatments were performed in technical duplicates and at least one or two independent experiments were conducted for each cytokine. At the end of the treatment period, supernatants were transferred to a new plate, and centrifuged at 300 RPM for 3 min. Forty microlitres of supernatant from each condition was transferred to a new plate, into which 180 μL of Quanti-Blue reagent (InvivoGen, cat. no. rep-qbs) was added. Quanti-Blue reagent was prepared following the manufacturer's instructions. Samples were incubated for 45 min at 37° C. At the end of the incubation, absorbance was read at 650 nm. The data were plotted in GraphPad Prism, which was used to calculate IC50 values as a non-linear regression.
# Characterization of the BMP-9 and BMP-10 inhibition potency (IC50) of the fusion proteins was performed using a second cell-based reporter assay. Human hepatic HepG2 cells were transfected with a SEAP-encoding plasmid, in which SEAP expression is under the control of the murine Id1 promoter. A stable pool was generated from this transfection. Cells were grown in EMEM, containing 10% heat-inactivated FBS and 200 μg/mL zeocin (hereafter, “HepG2 growth medium”). […] For all assays, cells were seeded in 96-well plates at a confluence of 100,000 cells per well in HepG2 growth medium. Cells were left to attach for 10 minutes at RT prior to being transferred to a 37° C. incubator (5% CO2) overnight. The next day, treatments were prepared in EMEM (2.5% heat-inactivated FBS and with no selection agents) by combining the appropriate concentration of agent with BMP-9 or BMP-10 for 30 min at RT (shaking at 150 rpm). Treatments were conducted in EMEM (2.5% heat-inactivated FBS and with no selection agents), and the final concentration of BMP-9 and BMP-10 was 2 ng/mL and 40 ng/mL, respectively. HepG2 growth medium was removed from the culture plates, and cells were treated with the appropriate mixes of fusion protein and cytokine. Treatment duration was for 20-24 h at 37° C. (5% CO2). All treatments were performed in technical duplicates and at least one or two independent experiments were conducted for each cytokine. At the end of the treatment period, supernatants were transferred to a new plate, and centrifuged at 300 RPM for 3 min. Forty microlitres of supernatant from each condition was transferred to a new plate, onto which 180 μL of Quanti-Blue reagent was added. Quanti-Blue reagent was prepared following the manufacturer's instructions. Samples were incubated for 5-6 h with Quanti-Blue reagent at 37° C. […]
# [9] = biological target: T5, BMP-9 (Homo sapiens, UniProt Q9UK05); experiment: Small-scale BMP-9 ELISA with CHO supernatants; assay type: binding; conditions: BMP-9 10 ng/mL
# T5 sequence (Q9UK05 320-429): T2 sequence (looked up)
# Method: (§1) Small-scale testing of ActRIIB-ECD fusion proteins. Additional investigation of a series of exemplary agents was performed using proteins expressed in CHO cells. Briefly, DNA encoding the ActRIIB-ECD-Fc fusion constructs was transfected in cells seeded in 12-well plates in a final volume of 1 ml. After 7 days, the supernatant was harvested, clarified, and the amount of expressed protein in each well was quantified using standard methods. The potency of each agent for inhibition of activin A, BMP-9 and BMP-10 was determined in three separate assays.
# The next day, the plate was washed three times. […] Expressed proteins in the supernatants were diluted 1 in 2 in assay diluent (0.5% BSA, 0.05% tween-20 in PBS) and 100 μl was added to the 96-well plate in technical duplicates. After a 1.5-hour incubation at RT, the plate was washed three times. […] In this assay, a loss of signal indicates less binding of the exemplary agent to BMP-9. Results are expressed as a % of the signal obtained with wild-type ActRIIB-Fc (P75).
# [10] = biological target: T6, BMP-10 (Homo sapiens, UniProt O95393); experiment: BMP-reporter HepG2 cell-based assay: BMP-10 neutralization
# T6 sequence (O95393 317-424): T1 sequence (looked up)
# Method: Characterization of the BMP-9 and BMP-10 inhibition potency (IC50) of the fusion proteins was performed using a second cell-based reporter assay. Human hepatic HepG2 cells were transfected with a SEAP-encoding plasmid, in which SEAP expression is under the control of the murine Id1 promoter. A stable pool was generated from this transfection. Cells were grown in EMEM, containing 10% heat-inactivated FBS and 200 μg/mL zeocin (hereafter, “HepG2 growth medium”). […] For all assays, cells were seeded in 96-well plates at a confluence of 100,000 cells per well in HepG2 growth medium. Cells were left to attach for 10 minutes at RT prior to being transferred to a 37° C. incubator (5% CO2) overnight. The next day, treatments were prepared in EMEM (2.5% heat-inactivated FBS and with no selection agents) by combining the appropriate concentration of agent with BMP-9 or BMP-10 for 30 min at RT (shaking at 150 rpm). Treatments were conducted in EMEM (2.5% heat-inactivated FBS and with no selection agents), and the final concentration of BMP-9 and BMP-10 was 2 ng/mL and 40 ng/mL, respectively. HepG2 growth medium was removed from the culture plates, and cells were treated with the appropriate mixes of fusion protein and cytokine. Treatment duration was for 20-24 h at 37° C. (5% CO2). All treatments were performed in technical duplicates and at least one or two independent experiments were conducted for each cytokine. At the end of the treatment period, supernatants were transferred to a new plate, and centrifuged at 300 RPM for 3 min. Forty microlitres of supernatant from each condition was transferred to a new plate, onto which 180 μL of Quanti-Blue reagent was added. Quanti-Blue reagent was prepared following the manufacturer's instructions. Samples were incubated for 5-6 h with Quanti-Blue reagent at 37° C. At the end of the incubation, absorbance was read at 650 nm. The data were plotted in GraphPad Prism, which was used to calculate IC50 values as a non-linear regression.
# [11] = biological target: T7, activin A (Homo sapiens, UniProt P08476); experiment: Small-scale activin A ELISA with CHO supernatants; conditions: 1 μg/mL protein, 30 ng/mL activin A, loss of signal = binding
# T7 sequence (P08476 311-426): T4 sequence (looked up)
# Method: as §1
# The next day, the plate was washed three times with buffer (Biolegend #421601). […] Expressed proteins in the supernatants described above were diluted to 2 μg/mL in assay diluent (0.5% BSA, 0.05% tween-20 in PBS), mixed 1:1 with recombinant human activin A (R&D #338-AC, 60 ng/mL, diluted in assay diluent). Complexes were immediately added to the 96-well plate in technical duplicates and incubated for 1 h at RT (concentration of expressed protein and activin A on the plate were 1 μg/mL and 30 ng/mL, respectively). […] In this assay, a loss of signal indicates binding of the exemplary agent to activin A, which prevents activin A binding to the anti-activin A antibody on the plate. Results are expressed as a % of the signal obtained with wild-type ActRIIB-Fc (P75).
# Sequence of GDF-11 (O95390 299-407 limits assumed): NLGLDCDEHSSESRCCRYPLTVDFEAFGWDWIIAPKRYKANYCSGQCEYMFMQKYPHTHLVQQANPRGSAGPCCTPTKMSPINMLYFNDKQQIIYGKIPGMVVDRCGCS
Molecule,BMP-10 IC50; BMP-reporter HepG2 cells [1] [nM],BMP-9 IC50; BMP-reporter HepG2 cells [2] [nM],Activin B IC50; TGFβ-reporter HEK293 cells [3] [nM],GDF-8 IC50; TGFβ-reporter HEK293 cells [4] [nM],GDF-11 IC50; TGFβ-reporter HEK293 cells [5] [nM],Activin A IC50; TGFβ-reporter HEK293 cells [6] [nM],high molecular weight (HMW) content (SEC-HPLC) [7] [%],monomer content (SEC-HPLC) [7] [%],"impact of modifications in the Fc sequence on activin A, activin B, GDF-8, and GDF-11 potency [8]","BMP-9 binding, ELISA signal relative to P75 [9]",inhibition potency on BMP-10 relative to P75 [10],"activin A binding, ELISA signal relative to P75 [11]"
B1,> 100,> 1000,1.9,0.48,0.39,0.55,,,,,,
B2,,,,,,,1,99,comparable to P1229,,,
B3,,,,,,,0,99,comparable to P1373,near-undetectable binding to BMP-9,,
B4,,,,,,,2,98,,,unchanged or modestly reduced,potent activin A binding
B5,,,,,,,2,97,,,unchanged or modestly reduced,potent activin A binding
